{
  "source": "the supplement of paper PMC12632987",
  "binders": {"B1": {"name": "GBRAP_52_6363 (protein)", "chain": "SLEEALKKLREAVEAELEGKEEEAEKILKEIVENFSEEEILAAVERLAEEVQTKSLEEAEAFLETAIRLADIMLEAGKDEAVADEIEAIAARAYMAVLEK"}, "B2": {"name": "GBRAP_184_5026 (protein)", "chain": "TVIEEEIVASDLAELEAKLAALAARVAGSGADLVVDLDLENPTEEKVRTAIAGLGAIKAAGNVSRVTVGFRNELSEELEEVALEAGDENGVNVVLPISDE"}, "B3": {"name": "GBRAP_125_3114 (protein)", "chain": "SMEEALEDLATVMRALGFDDEDIEEALELAKKFGLKQTMIAIFLAEGWEENAELAEKLTEEQVLRALAELAAWIRAHPDATPEEVAARAKEILERLLAEQ"}, "B4": {"name": "GBRAP_52_6140 (protein)", "chain": "MREELRKKAREILEKVKAGKLEEAKKIAKEIAEELNDEELKLFADEFAEVIRELRPEEIDYAAKALEILEDALEEAGRDEEIISYLRGKSTRAMYEVEQR"}, "B5": {"name": "GBRAP_11_2656 (protein)", "chain": "KKEAYKKAAELAEEAAKALQKLIEEGVDDEELIEKLRKLIEELKKLAEEELDEADKKEVEVVVELFEEFLADEENRLQLAEELLAGLRVLAGNFQLKADE"}, "B6": {"name": "GBRAP_128_3211 (protein)", "chain": "SVEEVREEVRRLLEEIKKADPETAKKIAEELAELIRNSSVEEAEAAREVIEELAPELSEEDLEILMEAFEKEARKTSDEISLVLLDISIILGSEIIEKEE"}, "B7": {"name": "GBRAP_53_6389 (protein)", "chain": "SEEELRRLIEELERLIEELKTADPERAVELARRAVELLLELAKLGLPEEELVRLVKRFAEAAAPKPELRPVLVELARRLAELGREDAAAEVAEALVEELE"}, "B8": {"name": "GBRAP_125_3041 (protein)", "chain": "SLEEAIEALAALAKIFGYSEEEVAELAELARKYGVKGALIALLLAEGLEELAELVAKLSDEAVKEVLRKFLAWVKAHPDITREEAVKKLRELVEEALKKE"}, "B9": {"name": "GBRAP_160_4818 (protein)", "chain": "SEKVKEILKDIDEETELVLSYVDTESVAQVTTLFEGEFGSIILELEEEEWLSDEAIDKIREIVDDTVAYMRANPDLSPEEIKELIKKAAEEIKKIIEEDD"}, "B10": {"name": "GBRAP_78_6691 (protein)", "chain": "KIEEELEKAIEHLGKAAKILAKMNTEEALDLLDEVIDAASILTEALLGETKLEDLEEALKILEKVAKELKKINTEEAKEALEHVEKAIKHVKKAIKLLKE"}, "B11": {"name": "GBRAP_139_3706 (protein)", "chain": "SELEKIIEEARELTRKMEEDFEESLDKIVELIKSLDEEKAEAALKAIGEVLAEFPLDKAEEYADALLEKIEEEIDDEDKVIIAEAVLNGALARHAAAEEA"}, "B12": {"name": "GBRAP_74_6537 (protein)", "chain": "DEELLKAAKEAAEKGDIEKLIEIAEEALENGSEETKVEVTTILLKTAKENKEKLTPEQIEAIADIIAKLYEVVDDEKLSDETAKLANEALALAVKTEKEK"}, "B13": {"name": "GBRAP_80_6775 (protein)", "chain": "AEEEVKKAIEEVEKLDPELAERLKKIYEELLKKGVSEEVLKAFAEAVAAIAKLLKLGETEEAKELVEELEEAAEEEDDENILAMLRGIAGEALMIVEELE"}, "B14": {"name": "GBRAP_11_2750 (protein)", "chain": "EKEKLKEIAKLAEEAAKLLQQLIKEGADNKELQAKLKEALEKLEKKVKELGDEFLKKLVEIAKENFEQAQADPETAQQHLQNALAALRTLAGQALLEIEE"}, "B15": {"name": "GBRAP_52_6032 (protein)", "chain": "MRERARRLAEEIIALVKAGRLEEARALVREIVATASEEELRLLGEELARLTREAPPEELDAYMRAAEILADAMEEAGFPEVLADDLLARVAAAAVENLAA"}, "B16": {"name": "GBRAP_160_4081 (protein)", "chain": "SAAHEKLIKEVTEIFDEALKMMEGVTPAEAVAIALVALGEVALLIEEEEELSEEDKDKLLALVDAAEAEVRAAADATVAELKALLERHRDEIVAAIKALD"}, "B17": {"name": "GBRAP_57_6444 (protein)", "chain": "SERLKEAEKLAEEIKKMLEEGAPLEEIKKKFEKLLDLLSEEDLLDIALILDPETDPNASREEIKERLLELFERAVREEGPEAAKAMVDLAVGQLEMSEIE"}, "B18": {"name": "GBRAP_14_3873 (protein)", "chain": "KEAALAIAREEIEEMEELLIEAIPEKKEEIEEMKKKLLEAAEKFFESEEDPEKAVEKLEEFADEKIEELKKKLTPEEAALAEAIAGTEMGNLRLKVDELL"}, "B19": {"name": "GBRAP_14_3782 (protein)", "chain": "MEEKERIIREEAERIIELLTEIVPEKAAEIRELVERVVAATIARMKETGDAEAAAEAGRDELVAGIEELLADLDPETRARALAVVRVEFGRAILEIEELE"}, "B20": {"name": "GBRAP_125_3014 (protein)", "chain": "AAEALAAAVGLIARALGYSEADVAELEALTLAHGVKGTLIAIALAEGDEELADLLERLSEAQVAAVVLRAAAELEAHPDLTPEEVKALLLRLAREALAAA"}, "B21": {"name": "GBRAP_43_5750 (protein)", "chain": "MEEIIEGHVDFALLAAEDPNISEEQKLKIAKDTFDILADENISLPEESSKLTEALAKSLSLEQLKELLAHLKELAKKYPELKELFDKNSKIIEEAIKKLE"}, "B22": {"name": "GBRAP_43_5791 (protein)", "chain": "MEEIVEGALDFARTALETPEITDETKARIVVDAVDFAADEGLLTEEELEELLRLLAESVSLEVAERALEEILKRLKELGAPQSLIDVVEKALEEVKKRRA"}, "B23": {"name": "GBRAP_184_5085 (protein)", "chain": "KTLERLIEAETPEEAERKLREVMAEAGAAKAALTVLVDVKGLDVETAIRLLEIAGEEKKRLGIPDVTIGFTEAFTEEEIDRILKKADEAGVRVVLPIKEE"}, "B24": {"name": "GBRAP_160_4069 (protein)", "chain": "MEELEKLKKEIEEIFDEAIEMMKGQDHEERVTIARVMGGEVVLLLEEDPSVSEEAVEEADKIMDELVATIEANPDLTDEELEALIEEARDKVIEAIEKHT"}, "B25": {"name": "GBRAP_128_3262 (protein)", "chain": "MNEEIVKYALEVVEKIKNSNKEEAKKIADEFMEWLLNSSLEDAEQAVDVIESNLDKLTAEQLEILADAAREHRPKATPEKANLIAGLEVEALNEAEEKEE"}, "B26": {"name": "GBRAP_128_3506 (protein)", "chain": "STAAAVATVAALMAAIKTADPETARALAAQIVELLNSVDLETAEAMVDVILAALPELSKEHLEVLADTFREKRPEVSPEVANLLADIEVEALNEAEEKEE"}, "B27": {"name": "GBRAP_11_2740 (protein)", "chain": "KKEKLEEILKLAEELAKALQELIEKGVDNKELQKKAEELLKKLKEKVKELGDEDLIKLVEQIEEEWKKALEDPETKLEHLKNALATARVLAGQVELLIEE"}, "B28": {"name": "GBRAP_184_5284 (protein)", "chain": "EVRHVEIVAETAEEAIAQVRAAAEAARAAGAKLDLTLLLRDADVEGVKELLELLKELREEGVIERAVLGIENERTEEEIDELLEAADEAGVRVVLAISDE"}, "B29": {"name": "GBRAP_96_7097 (protein)", "chain": "ELEEARALVRALVAALDTDPERARALAEELLEFPVEVVTRALVEVVTDPEDARKIARLLLELGKEKAEEVLLEAAERAPGPLSKAIIDAMEEYEREQEEA"}},
  "note": "Over roughly 4,500 sequences, “median log2 fold change of GCK-ALFA target abundance (FLAG IP / Myc IP barcode read proportion)” has its median near 0.078; the lowest 2% begin near -0.6. This is one part of the list.",
  "data": [
    {"target": "GABARAP, O95166", "sequence (O95166 whole entry, the tested form may be a part)": "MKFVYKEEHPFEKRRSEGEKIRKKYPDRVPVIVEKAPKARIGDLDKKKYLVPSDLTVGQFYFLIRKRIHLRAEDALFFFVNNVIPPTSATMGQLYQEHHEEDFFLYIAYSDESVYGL", "experiment": "median log2 fold change of GCK-ALFA target abundance (FLAG IP / Myc IP barcode read proportion) (log2 ratio); each designed protein is fused to an ALFA-tag nanobody in HEK293 cells to bring the named protein to FLAG-tagged glucokinase (GCK); Myc marks an untargeted standard; higher = target protein stabilised (more abundant)", "settings": "target protein: 3xFLAG-MCP-GCK-ALFA reporter; HEK293 landing pad (RPLP)", "outline": "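HEK293 landing-pad cells received a recombined binder library fused to the ALFA nanobody and were induced with 2 μg mL^−1 doxycycline, then transfected with a plasmid encoding a FLAG-tagged target and a Myc-tagged standard. Lysates were collected after 48 h for anti-FLAG and anti-Myc immunoprecipitation, and the circular RNA barcodes were reverse transcribed, amplified and sequenced. Target abundance for each binder is the median log2 ratio of FLAG to Myc barcode read proportions. Barcodes had to reach a proportion of at least 10^−7 in both replicates, each binder needed at least 3 barcodes per replicate, a pseudocount of 10^−6 was applied, and the two replicates were pooled.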", "values": [
      {"binder": "B1", "median log2 fold change": 0.134},
      {"binder": "B2", "median log2 fold change": 0.126},
      {"binder": "B3", "median log2 fold change": -0.541},
      {"binder": "B4", "median log2 fold change": 0.063},
      {"binder": "B5", "median log2 fold change": 0.336},
      {"binder": "B6", "median log2 fold change": -0.219},
      {"binder": "B7", "median log2 fold change": 0.0692},
      {"binder": "B8", "median log2 fold change": -0.384},
      {"binder": "B9", "median log2 fold change": 0.00235},
      {"binder": "B10", "median log2 fold change": -0.429},
      {"binder": "B11", "median log2 fold change": 0.159},
      {"binder": "B12", "median log2 fold change": 0.302},
      {"binder": "B13", "median log2 fold change": -0.0207},
      {"binder": "B14", "median log2 fold change": 0.0856},
      {"binder": "B15", "median log2 fold change": -0.327},
      {"binder": "B16", "median log2 fold change": 0.134},
      {"binder": "B17", "median log2 fold change": 0.317},
      {"binder": "B18", "median log2 fold change": 0.399},
      {"binder": "B19", "median log2 fold change": 0.291},
      {"binder": "B20", "median log2 fold change": -0.0942},
      {"binder": "B21", "median log2 fold change": 0.475},
      {"binder": "B22", "median log2 fold change": -0.0499},
      {"binder": "B23", "median log2 fold change": 0.0379},
      {"binder": "B24", "median log2 fold change": -0.202},
      {"binder": "B25", "median log2 fold change": 0.232},
      {"binder": "B26", "median log2 fold change": 0.226},
      {"binder": "B27", "median log2 fold change": 0.486},
      {"binder": "B28", "median log2 fold change": 0.0126},
      {"binder": "B29", "median log2 fold change": 0.253}
    ]}
  ]
}
